Over roughly 33,000 sequences, “E-score (-0.5 to 0.5)” has its median near -0.016; the highest 2% begin near 0.32. This is one part of the list.
Each sequence was assayed against T1, Stp1 (UniProt B3LFK1) (assay: PBM E-score (8-mer binding enrichment) (E-score (-0.5 to 0.5)); higher = stronger / more preferred TF binding; most listed sequences are background and not binding sites). Details: protein concentration: 200 nM; construct: GST-full length.
T1 sequence: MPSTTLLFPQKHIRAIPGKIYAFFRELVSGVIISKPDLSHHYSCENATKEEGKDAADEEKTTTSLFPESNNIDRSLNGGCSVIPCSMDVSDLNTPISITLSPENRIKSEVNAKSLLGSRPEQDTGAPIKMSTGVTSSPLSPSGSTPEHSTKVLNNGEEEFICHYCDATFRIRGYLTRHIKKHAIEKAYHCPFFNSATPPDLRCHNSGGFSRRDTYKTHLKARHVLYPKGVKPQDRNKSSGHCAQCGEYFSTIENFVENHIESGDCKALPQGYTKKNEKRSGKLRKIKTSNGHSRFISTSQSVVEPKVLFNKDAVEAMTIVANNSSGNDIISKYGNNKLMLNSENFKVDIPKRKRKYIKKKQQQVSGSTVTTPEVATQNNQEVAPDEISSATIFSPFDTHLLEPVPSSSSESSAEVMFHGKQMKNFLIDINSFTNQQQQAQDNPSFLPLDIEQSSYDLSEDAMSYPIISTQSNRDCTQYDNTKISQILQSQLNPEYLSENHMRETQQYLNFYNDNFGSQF
Experimental: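 Universal 'all 10-mer' protein binding microarrays (Agilent AMADID 015681) probed with GST-tagged S. cerevisiae TFs (full-length or DBD) made by in vitro transcription/translation (PURExpress), about 100-200 nM. Bound TF was detected with fluorescent anti-GST. Each ungapped 8-mer (which stands for itself and its reverse complement) is scored by the PBM enrichment score (E-score), a modified Wilcoxon-Mann-Whitney statistic from -0.5 to +0.5, computed with the Universal PBM Analysis Suite. Scale: above 0.35 generally sequence-specific binding.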
In the case of AATCAAAC, the “PBM E-score” value is reported as 0.127. In the case of GGAAGTTA, the “PBM E-score” value is reported as 0.0324. In the case of ATTTCCCA, the “PBM E-score” value is reported as 0.0347. In the case of ATAACACG, the “PBM E-score” value is reported as 0.181. For AGGCATCC, the “PBM E-score” value was -0.0829. For ACGATCCC, the “PBM E-score” value was -0.211. With CCAAGCGG the “PBM E-score” value was 0.105. GTGGCTAA was tested, and the “PBM E-score” value was 0.244. For GGTACTAA, the “PBM E-score” value was 0.0259. ACAATCGT was tested, and the “PBM E-score” value was -0.176. AAAGGGGG was tested, and the “PBM E-score” value was -0.423. TTGACAAA was tested, and the “PBM E-score” value was 0.229. In the case of ACCTGATA, the “PBM E-score” value is reported as 0.0697. For CCCGTTCA, the “PBM E-score” value was -0.132. For CTATATAC, the “PBM E-score” value was 0.275. In the case of CCAACAGG, the “PBM E-score” value is reported as -0.173. CGGAATTA was tested, and the “PBM E-score” value was 0.0149. In the case of CGTCCATA, the “PBM E-score” value is reported as 0.158. For GCGGTATA, the “PBM E-score” value was -0.00181. For GGCCACCA, the “PBM E-score” value was -0.0479. With ACACGAGT the “PBM E-score” value was 0.0728. In the case of AGAGCAAG, the “PBM E-score” value is reported as 0.0492. With CGCGAGGC the “PBM E-score” value was 0.421. With AATAGATC the “PBM E-score” value was 0.0313. With ACTCCGGA the “PBM E-score” value was 0.00743. In the case of AACGGATA, the “PBM E-score” value is reported as 0.208. CCAGTCAA was tested, and the “PBM E-score” value was -0.122. For AACCTTAT, the “PBM E-score” value was -0.0729. For ACGGGCAC, the “PBM E-score” value was 0.205. TCTAAAGA was tested, and the “PBM E-score” value was 0.0839. In the case of CCTTAGCC, the “PBM E-score” value is reported as 0.268. AATAATGA was tested, and the “PBM E-score” value was 0.207. With GAAAATGA the “PBM E-score” value was -0.0591. For ATGCGAAT, the “PBM E-score” value was 0.0664. With AGATAGGG the “PBM E-score” value was -0.118. CGATAAGC was tested, and the “PBM E-score” value was -0.0171. With TGGAGGAA the “PBM E-score” value was -0.11. With GAATGCAA the “PBM E-score” value was -0.0009. For ACCGGTAC, the “PBM E-score” value was -0.287. AGACCAAG was tested, and the “PBM E-score” value was -0.0841. In the case of AAGTCATC, the “PBM E-score” value is reported as -0.159. In the case of AGAAGGCC, the “PBM E-score” value is reported as 0.0514. With AAGAACGG the “PBM E-score” value was 0.102. AGTCCACT was tested, and the “PBM E-score” value was -0.218. With AAGAAGGT the “PBM E-score” value was -0.0552. With AAAAGTCC the “PBM E-score” value was -0.0528. With CTACCGCC the “PBM E-score” value was -0.0357. For CTGCCAAA, the “PBM E-score” value was -0.0704. With CGATTCTA the “PBM E-score” value was 0.114. With GGGCTCCA the “PBM E-score” value was -0.168. With CAGGTACA the “PBM E-score” value was -0.0186. In the case of CATATTCC, the “PBM E-score” value is reported as -0.14. In the case of AAAGCATA, the “PBM E-score” value is reported as -0.0516. For ATCTATAA, the “PBM E-score” value was 0.0394. In the case of GTATGGAA, the “PBM E-score” value is reported as -0.1. In the case of GATAGTCA, the “PBM E-score” value is reported as -0.0929. With GCTCTTAA the “PBM E-score” value was 0.132. With GGGGTAGA the “PBM E-score” value was -0.139. CCTGTGAA was tested, and the “PBM E-score” value was -0.0561. In the case of AATAGCTA, the “PBM E-score” value is reported as -0.131. AACTACAC was tested, and the “PBM E-score” value was 0.102. For CCGCCAAA, the “PBM E-score” value was 0.0147. In the case of CCACCCAG, the “PBM E-score” value is reported as -0.153. With TACACAAA the “PBM E-score” value was 0.306. In the case of GACCAAAA, the “PBM E-score” value is reported as 0.193. GCGGATAA was tested, and the “PBM E-score” value was 0.276. In the case of AACTCAGT, the “PBM E-score” value is reported as -0.082. For GAACCATC, the “PBM E-score” value was -0.053. With CACGCGGA the “PBM E-score” value was 0.294. With CCCTGACG the “PBM E-score” value was -0.16. In the case of CCCGGGGC, the “PBM E-score” value is reported as -0.149. For ATGTACAC, the “PBM E-score” value was -0.0825. For GAGCTTAC, the “PBM E-score” value was -0.0435. With AAGTCGCT the “PBM E-score” value was -0.206. For GGAGGCCC, the “PBM E-score” value was -0.298. For CGCCGGGC, the “PBM E-score” value was 0.041. For CATTAAAA, the “PBM E-score” value was 0.245. ATGCTAAT was tested, and the “PBM E-score” value was 0.00496. With CGTGATGA the “PBM E-score” value was 0.0223. For GCTAACCA, the “PBM E-score” value was -0.17. For AGCCCTAG, the “PBM E-score” value was -0.145. For TCACCTCA, the “PBM E-score” value was 0.0111. With TATTGTAA the “PBM E-score” value was 0.152. With CGGCTCAA the “PBM E-score” value was 0.351. AGGCCTCC was tested, and the “PBM E-score” value was -0.164. ATTGGCTG was tested, and the “PBM E-score” value was -0.127. With GGATTCAC the “PBM E-score” value was -0.0343. For ATTCGCCA, the “PBM E-score” value was 0.0506. For CTGACCAC, the “PBM E-score” value was -0.054. With GCCAAGAC the “PBM E-score” value was -0.167. For AAAATCTC, the “PBM E-score” value was -0.0545. CTTCGAGC was tested, and the “PBM E-score” value was -0.0739. In the case of GGTAGCCA, the “PBM E-score” value is reported as -0.0378. With CCCAGGGG the “PBM E-score” value was -0.233. In the case of ACAAGACT, the “PBM E-score” value is reported as -0.168. For TATCGAGA, the “PBM E-score” value was -0.0215. AGAGCAGG was tested, and the “PBM E-score” value was -0.078. AAGGCCGC was tested, and the “PBM E-score” value was 0.314. For AGATTGGC, the “PBM E-score” value was -0.21. With CCCGCTCC the “PBM E-score” value was -0.241. For CAGGCACG, the “PBM E-score” value was 0.174. In the case of AAGTTGCG, the “PBM E-score” value is reported as -0.025. AATGTTGC was tested, and the “PBM E-score” value was 0.119. For ATAGCAAT, the “PBM E-score” value was 0.0963. With GGTTGCGA the “PBM E-score” value was -0.125. With CGGGGTTA the “PBM E-score” value was 0.0929. With ATGACCAG the “PBM E-score” value was -0.16. AGATGAAC was tested, and the “PBM E-score” value was 0.102. With ACGTTCGA the “PBM E-score” value was -0.028.
